# Measurements as given in the supplement of paper PMC10986608.
# The list shows a part of the results. Most values come without repeats; read them as rough.
# System: Candida albicans DPL-15
# Assay: growth (OD600) after compound treatment (apparently relative to screen median) (relative growth (fraction; screen median 1.02)); DPL-15 is a caspofungin-resistant clinical isolate; higher = more fungal growth (less antifungal activity)
# Settings: 25 µM; RPMI 1640; 48 h; 30 °C
row,SMILES,growth
1,CC(=O)C1=C(C)N(Cc2ccc(F)cc2)C(=S)NC1c1ccc(Cl)cc1 (centres undefined),1.06
2,O=C1OCc2ccc(C#CCOc3ccc4c(=O)c(Cc5ccncc5)coc4c3)cc21,1.12
3,C#CCC(C)(C)CNC(=O)[C@@H]1C[C@@H](O)CN1C(=O)OCC1c2ccccc2-c2ccccc21,1.06
4,CC(C)Cc1c2c(nn1-c1ccccc1)C(=O)NC2c1ccc(Br)cc1 (centres undefined),0.983
5,COC1=C[C@H](C(=O)NCc2ccc(Br)cc2)[C@H](C)[C@@H](c2ccccc2)CC1=O,1.09
6,COc1cccc(N2C(=O)c3[nH]nc(CC(C)C)c3C2C2CCCCC2)c1 (centres undefined),1.13
7,COc1ccc(Cn2nc(C3CC3)cc2N)cc1,1.1
8,COc1ccccc1Cn1nc2c(c1C(C)C)C(c1ccccc1)NC2=O (centres undefined),1.13
9,CC1(C)CN=C(c2ccccc2)C2=C(N1)C(=O)N(c1ccccc1)C2c1ccc2c(c1)OCO2 (centres undefined),1.1
10,COc1cc([C@@H]2[C@@H](C(=O)NC3CCCC3)[C@@H](C(=O)NC3CCCC3)[C@@H]2c2cc(OC)c(OC)c(OC)c2)cc(OC)c1OC,1.01
11,C=CCNC1=NC(c2cccc(C(F)(F)F)c2)C(C(=O)OC)=C(C)N1C (centres undefined),0.881
12,COc1ccc(C2NC(=S)N(Cc3ccccc3)C(C)=C2C(C)=O)cc1 (centres undefined),0.942
13,CCOC(=O)/C=C/CCC/C=C/C(=O)c1ccccc1,0.949
14,COC(=O)[C@]1([C@H]2CCC(=O)O2)CC(=O)c2c(O)c(Br)cc(Br)c2O1,1.17
15,O=C(CCc1ccco1)NCc1cccc(CNC(=O)CCc2ccco2)c1,0.981
16,C=CCCN1C(=O)[C@H]2[C@H]([C@H]3c4ccccc4[C@]2([C@@H](COC)OC)c2ccccc23)[C@]1(C)O,0.982
17,COC(=O)c1cc2c(c3c4ccccc4n(S(=O)(=O)c4ccc(C)cc4)c13)C(=O)N(C)C2,1.1
18,CC(=O)OC[C@H]1O[C@H](c2ccc(C)cc2)C=C[C@@H]1OC(C)=O,0.949
19,CCCCCOS(=O)(=O)NC(C)C,1.16
20,CCOc1ccc(-n2c(C)c3c(C)nnc(N4CCN(C)CC4)c3c2C)cc1,0.961
21,COC(=O)[C@@]12Oc3ccc(-c4ccc(N5CCN(C(=O)OC(C)(C)C)CC5)nc4)c(O)c3C(=O)C1=C(N)C[C@H](C)[C@H]2O,0.943
22,CCN1C(NCc2cccc(C(F)(F)F)c2)=N[C@@H](c2cccc(C(F)(F)F)c2)C(C(=O)OC)=C1C,0.899
23,CC[C@@H](C)C(=O)N[C@@H]1CCCN1C(=O)/C=C/c1ccccc1,0.931
24,CC(=O)O[C@@H]1C=C[C@@H](C#Cc2ccc(C(C)(C)C)cc2)O[C@@H]1COS(=O)(=O)c1ccc(C)cc1,0.935
25,COC(=O)[C@H](Cc1ccccc1)N1C[C@@]2(O)CC[C@@H](O)[C@@H](OC)[C@@H]2[C@@](C)(O)[C@@H]1CC=C(C)C,0.917
26,C#CCCCC(=O)NCc1ccc(O)c(OC)c1,1.11
27,O=C(c1c(O)cc(O)cc1Nc1ccnn1Cc1ccc(C(F)(F)F)cc1)N1Cc2cccnc2C1,0.985

row,SMILES,growth
1,CC(=O)C1=C2C=CCCN2C(=O)NC1c1cc(F)ccc1Br (centres undefined),1.27
2,CCOC(=O)c1cc2nc(SC)[nH]c(=O)c2nc1C(=O)OCC,1.04
3,CC(C)C1=C[C@H]2[C@H]3C(=O)C(c4ccccc4)=CC3(c3ccccc3)[C@@H]1C(=O)[C@]2(C)O (some centres undefined),0.999
4,CC(=O)C1=C(C)N(Cc2ccc(F)cc2)C(=S)NC1c1ccccc1F (centres undefined),1.05
5,CC(C)OC(=O)[C@@H](Cc1ccccc1)N[C@H](/C=C/c1ccccc1)[C@@H](O)Cc1ccccc1,1.11
6,COc1ccc(-c2[nH]c3cc(OC)cc(OC)c3c(=O)c2O)cc1,active: 0.0446
7,COc1ccc(N2C(=O)c3[nH]nc(CC(C)C)c3C2c2ncccc2OC)cc1 (centres undefined),0.982
8,COCC(OC)[C@]12c3ccccc3[C@H](c3ccccc31)[C@H]1[C@@H]2C(=O)N2CC=CC[C@]12O (some centres undefined),1.05
9,COc1ccc(N2C(=O)C3=C(C(CC(C)C)=NCC(C)(C)N3)C2c2ccc(F)cc2)cc1 (centres undefined),1.12
10,C=CCNC1=NC(c2cccc(F)c2)C(C(=O)OC)=C(C)N1Cc1ccccc1 (centres undefined),1.08
11,COC(=O)[C@H]1[C@H](C(=O)OC)[C@@H](c2ccccc2)[C@@H]1c1ccccc1,0.895
12,CO[C@H]1CCN(C(=O)c2c(O)cc(O)cc2Nc2cn(C)nc2C)C1,1.22
13,COC(=O)C1=C(C)N(CCC(C)O)C(=O)N(C(C)=O)C1c1ccccc1 (centres undefined),1.06
14,O=C(c1c(O)cc(O)cc1Nc1ccnn1C1CCCCC1)N1Cc2cn[nH]c2C1,1.16
15,C=CCc1c(O)c(C(=O)c2ccccc2)c2c(c1OC)CC(C)O2 (centres undefined),0.976
16,C=CCN1C(=O)C2=C(C(CC(C)C)=NCCN2)C1c1ccc2c(c1)OCO2 (centres undefined),1
17,COC(=O)C1=C(C(=O)OC)[C@@H](c2ccc(F)cc2)O[C@@H]1c1ccc(F)cc1,0.98
18,O=C(NO)[C@H](Cc1ccccc1)n1nnc(-c2ccccc2)c1C#Cc1ccccc1,0.558
19,COC(=O)C1=C(C(=O)OC)[C@@H](c2ccc(C(F)(F)F)cc2)O[C@H]1c1ccc(C)cc1,1.07
20,C=CC[C@]12C[C@@]3(O[C@H](C4CCNCC4)N=C3C[C@H](c3ccc(OC)cc3)[C@H]1C)N(C)C2=O,1.1
21,CC1(C)O[C@@H]2[C@@H](CO[C@@]3(COS(=O)(=O)Nc4ccccc4)OC(C)(C)O[C@@H]23)O1,1.26
22,COc1cc([C@H]2c3c(OC)c(O)c4oc5ccccc5c(=O)c4c3[C@@H]3C=C(C)CC(C)(C)[C@H]23)c2c(=O)c3ccccc3oc2c1O,1.31
23,COC(=O)c1cc2c(c3c4cc(F)ccc4n(S(=O)(=O)c4ccc(C)cc4)c13)C(=O)N(Cc1ccccc1OC)C2,1.12
24,CC(=O)C1=C2C=CCCN2C(=O)NC1c1ccc2c(c1)CCO2 (centres undefined),0.9
25,O=C(OCc1ccccc1)c1cccc2c(=O)c3cccc(O)c3[nH]c12,0.971
26,C[C@H]1[C@@H]2C[C@@]3(O[C@H](C4CCNCC4)N=C3C[C@@H]1c1ccccc1)N(Cc1cccnc1)C2=O,1.2
27,C=CCC1=C(OC)[C@@]2(CC=C)C[C@@H]3[C@@H](c4ccc([N+](=O)[O-])cc4)[C@](O)(c4ccccc4)[C@]3(C1=O)C2=O,1.06

row,SMILES,growth
1,C=C(C)C1[C@H](c2cc(O)c(O)c3oc4ccccc4c(=O)c23)C=C(C)C[C@H]1c1cc(O)c(O)c2oc3ccccc3c(=O)c12 (some centres undefined),0.382
2,C=CCOC(=O)NC(c1ccc(F)c(F)c1)C(C(=O)COC)C(=O)OC (centres undefined),0.985
3,Cc1ccc(C2NC(=O)c3nn(-c4ccc(F)cc4)c(C(C)C)c32)cc1 (centres undefined),1
4,COc1ccc(-c2cnn3c(N)c(-c4ccc(OC)nc4)cnc23)cc1,1.04
5,CCOC(=O)c1ccc(N2C[C@@]3(O)CC[C@@H](O)[C@@H](OC)[C@@H]3[C@@](C)(O)[C@@H]2CC=C(C)C)cc1,1.02
6,COC(=O)C1=C(C)N(Cc2ccc(Cl)cc2)C(=S)NC1c1ccc(Br)cc1 (centres undefined),0.901
7,COC(=O)C/C=C/[C@H](C)[C@H](NC(=O)C(F)(F)F)c1ccc2ccccc2c1,0.964
8,COc1ccc(OC)c(CNCC2CCCN(CCc3ccccc3C)C2)c1 (centres undefined),1.2
9,c1ccc([C@H]2c3cc4c(cc3O[C@@H]3[C@H]5CC[C@H](C5)[C@H]23)OCO4)cc1,1.08
10,CCOC(=O)C1=NO[C@@]2(C=C(Br)C3(OCCCO3)[C@H]3O[C@H]32)C1,1.01
11,CC(C)CC(=O)c1c(O)cc(O)cc1O,1
12,COc1ccc(N2C(=O)c3[nH]nc(CC(C)C)c3C2c2ccccc2Br)c(OC)c1 (centres undefined),1.17
13,COCCNC1=NC(c2ccc(Cl)cc2)C(C(=O)OC)=C(C)N1Cc1cccc(C(F)(F)F)c1 (centres undefined),0.892
14,COc1ccc(-c2[nH]c3ccccc3c(=O)c2O)cc1,active: 0.0638
15,O=S(=O)(c1cccs1)N1CCCc2nc(-c3ccc(F)cc3)ccc21,0.917
16,Cc1ccccc1S(=O)(=O)N1CCCc2nc(-c3ccc(F)cc3)ccc21,0.907
17,COc1ccc(Cn2nc(C)cc2Nc2cc(O)cc(O)c2C(=O)N2Cc3cccc(F)c3C2)cc1,1.01
18,CC1=CC2=C[C@@H](OC(=O)N(C(C)C)C(C)C)C[C@@H](C)[C@]2(O)[C@@H]2CCC3(OCCO3)[C@@]2(O[Si](C)(C)C)C1,0.766
19,Cc1ccc(C2C3=C(NCCN=C3CC(C)C)C(=O)N2Cc2ccccc2)cc1 (centres undefined),1.06
20,CS(=O)(=O)Oc1c(C[C@@]23CCCCC2=Nc2ccccc23)occc1=O,0.923
21,CC(C)CC1=NCCN(C)C2=C1C(c1ccc3c(c1)OCO3)N(c1ccccc1)C2=O (centres undefined),0.924
22,COc1ccc(C2=CC3=C(Br)C(=O)C(C)(O)C(=O)C3=CO2)cc1 (centres undefined),0.965
23,O=C(c1ccccc1)c1c(O)cc(O)cc1O,1.06
24,CC(=O)[C@@H]1C[C@@H]2C=C(C(C)C)[C@H]1C(=O)[C@]2(C)O,0.992
25,Fc1ccc([C@H]2OC[C@H]3[C@@H]2CO[C@H]3c2ccc(F)cc2)cc1,1.08
